# Data as given in PubChem BioAssay AID463173 (ICCB-Longwood Screening Facility, Harvard Medical School, 2010).
# In all, about 52,000 compounds went through this assay and about 1,700 (3.3%) were called active. No stated cut-off is given here; in the data, active means survival mostly below about 52% (no sharp cut-off); inactive means mostly above about 56%. Some of the results follow.
# Test system: Wild type
# Test: S. aureus survival, RN4220 and DeltatarO strains – OD600, teichoic acid synthesis inhibitors, primary screen (AID 463173)
# Settings: S. aureus RN4220 wild type/DeltatarO growth, OD600, 18 h, hits give low values, screened at 18.75 µg/mL (by protocol)
row,Compound,survival
1,CCCn1c(SCc2nc(-c3ccc(OC)cc3OC)no2)nnc1-c1ccc(Cl)cc1,inactive: 88%
2,Cc1cccc(C)c1NC(=O)CSc1nc(-c2ccccc2)nc2c1Cc1c(CO)cnc(C)c1O2,inactive: 88%
3,CCC1CN(C(=O)N2CCC(C(=O)NCCc3ccc(Cl)cc3)CC2)c2ccccc2O1 (centres undefined),inactive: 79%
4,O=C1NCCN(Cc2ccc(F)cc2)C1=O,inactive: 51%
5,CCN(CC)c1ccc(NS(=O)(=O)c2ccc(-c3cnc(C4CC4)o3)cc2)c(C)c1,inactive: 77%
6,Cn1c(SCc2ccc(F)cc2)nc2ccc(C(=O)NCc3ccc(Cl)cc3)cc21,inactive: 83%
7,COc1ccc(-c2noc(CN(C(=O)COc3cc(C)c(Br)c(C)c3)C(C)C)n2)cc1,active: 7%
8,COc1ccc(NC(=O)Cn2nnc(C(=O)Nc3ccc(F)c(Cl)c3)c2N)cc1OC,inactive: 32%
9,Cc1ccc(NC(=O)Cn2cc(C(=O)C3CC3)c3ccccc32)cc1,inactive: 162%
10,COC(=O)c1scc(-c2ccc(C)cc2)c1S(=O)(=O)Nc1cc(Cl)ccc1C,inactive: 75%
11,Cn1c(=O)c(=O)n(C)c2cc(N3CCOCC3)c(NS(=O)(=O)c3ccc(Cl)cc3)cc21,active: -3%
12,Cc1nn(Cc2ccc(F)cc2)c(C)c1NC(=O)c1cc(CC(C)C)on1,inactive: 72%
13,CCOC(=O)c1[nH]c2c(c1Cc1ccccc1)C(=O)CC(c1ccc(Cl)cc1)C2 (centres undefined),inactive: 93%
14,CCc1ccc(S(=O)(=O)c2cn(CC(=O)Nc3ccc(C)cc3)c3ccccc3c2=O)cc1,inactive: 78%
15,N#C/C(=C/c1ccc(N2CCCCC2)o1)C(=O)NCCc1c[nH]c2ccccc12,inactive: 128%
16,CCOc1ccccc1NC(=O)c1sc2nc3n(c(=O)c2c1C)CCCCC3,inactive: 87%
17,COCCOC(=O)c1c(C)n(S(=O)(=O)c2ccc(C)cc2)c2ccc(NS(=O)(=O)c3ccc(C)cc3)cc12,inactive: 86%
18,Cc1ccc(CNC(=O)c2ccc3nc(N4CCCCC4)sc3c2)cc1,inactive: 73%
19,COc1cccc(C(c2sc3nc(-c4ccco4)nn3c2O)N2CCC(O)CC2)c1 (centres undefined),inactive: 128%
20,CCOC(=O)c1ccc(NC(=O)c2c(NC(C)=O)sc3c2CCC(C)C3)cc1 (centres undefined),inactive: 54%
21,CCOc1ccc(CCNC(=O)c2ccc3c(Cl)c4c(nc3c2)CCCC4)cc1,inactive: 71%
22,O=S(=O)(NCCc1nnc2ccc(SCc3ccc(Cl)cc3Cl)nn12)c1ccccc1,inactive: 62%
23,Cc1cc(C)cc(NC(=O)CSc2nc3c(oc4ccccc43)c(=O)n2-c2ccccc2F)c1,inactive: 102%

row,Compound,survival
1,COc1ccc2cc3cc(C(=O)NCc4ccc(C)cc4)oc3nc2c1,inactive: 89%
2,COc1ccc(OC)c(CCNC(=O)c2ccc3c(c2)N(Cc2ccc(C)cc2)CCS3)c1,inactive: 80%
3,CCc1cccc(OCC(=O)Nc2ccc(S(=O)(=O)Nc3cc(C)nc(C)n3)cc2)c1,inactive: 94%
4,COc1ccc(Nc2cc(C(=O)NCCc3ccc(C)cc3)c3ccccc3n2)c(OC)c1,inactive: 81%
5,O=c1[nH]n(CC2COC3(CCCCC3)O2)c(=O)c2ccccc12 (centres undefined),inactive: 105%
6,Cc1ccc(-c2nnc(Nc3ccc(O)cc3)c3ccccc23)cc1S(=O)(=O)N1CCN(C)CC1,inactive: 70%
7,COc1cccc(C(=O)COc2cccc(NC(=O)c3ccco3)c2)c1,inactive: 113%
8,CCOCCCNC(=O)C1CCN(c2nn3cc(-c4ccc(F)cc4)nc3s2)CC1,inactive: 75%
9,CCCCOc1ccc(C(=O)Nc2nnc3n2CCS3)cc1,inactive: 95%
10,CCOC(=O)N1CCC(NC(=O)c2c(C)nn(-c3ccc(C)cc3)c2-n2cccc2)CC1,inactive: 65%
11,CCOc1ccc(-c2nn(CC(=O)NC3CCCCC3)c3c2cnc2ccc(C)cc23)cc1,inactive: 94%
12,CCCn1c2ccccc2c2cnn(CC(=O)NCCc3ccc(OCC)cc3)c(=O)c21,active: -6%
13,CCOc1ccc(NC(=O)CCNS(=O)(=O)c2ccc3c(c2)oc(=O)n3C)cc1,inactive: 101%
14,Cc1ccc(C(=O)NCCc2ccc(Cl)cc2)cc1-n1c(C)nc2cccnc21,inactive: 71%
15,COc1cc(-c2noc(-c3ccc(NCc4ccccc4)c([N+](=O)[O-])c3)n2)cc(OC)c1OC,inactive: 85%
16,COc1ccc(Cl)cc1NC(=O)c1sc(-n2nc(C)c(Cc3ccccc3)c2C)nc1C,inactive: 84%
17,Cc1ccc(C)c(Cn2c3ccccc3c3cnn(CC(=O)NCCC4=CCCCC4)c(=O)c32)c1,inactive: 82%
18,COc1ccc(NC(=O)Cn2nnc3sc4c(c3c2=O)CCC(C)C4)c(OC)c1 (centres undefined),inactive: 134%
19,COc1ccccc1CNC(=O)c1ccc2c(c1)N(Cc1cccc(C)c1)C(=O)c1ccccc1S2(=O)=O,inactive: 90%
20,S=C(Nc1ccccc1)N1CCN(c2ccccc2)CC1,inactive: 110%
21,CCn1c(=O)c2cc(C(=O)N(CCN(C)C)Cc3ccccc3)sc2c2ccccc21,inactive: 75%
22,Cc1nnc(SCc2ccccc2)c2cc3sccc3n12,inactive: 55%
23,CCOc1cc(C(=O)N2CC(=O)Nc3ccc(C)cc3C2c2ccccc2)cc(OCC)c1OCC (centres undefined),inactive: 139%

row,Compound,survival
1,COCCCNC(=O)CSC1=Nc2ccccc2C2=NC(CCC(=O)NCc3ccccc3OC)C(=O)N12 (centres undefined),inactive: 73%
2,COc1ccc(N2CCN(c3oc(/C=C/c4ccc(F)cc4)nc3C#N)CC2)cc1,inactive: 84%
3,CCc1ccc(CN(Cc2ccco2)C(=O)c2ccc(OC)cc2)cc1,inactive: 73%
4,O=S(=O)(Nc1cccc(-c2ccc(N3CCCC3)nn2)c1)c1ccccc1C(F)(F)F,inactive: 55%
5,O=C(C1CCCCC1)N1CCc2ccccc21,inactive: 101%
6,COCC(C)NCc1cccc(Oc2ccccc2)c1 (centres undefined),inactive: 104%
7,CCc1ccc(CNC(=O)CCC(=O)N2Cc3cccc(OC)c3Oc3ncccc32)cc1,inactive: 63%
8,Cc1nnc(SCC(=O)n2c3ccccc3c3ccccc32)s1,inactive: 105%
9,O=C(Nc1cccc(C(=O)OCc2cc(=O)n3nc(C4CC4)sc3n2)c1)c1ccccc1,active: 1%
10,Cc1cc(C)cc(OC(C)C(=O)Nc2nonc2-c2ccc(Br)cc2)c1 (centres undefined),active: 17%
11,O=C(NCc1ccco1)C1CCN(C(=O)N2CCOc3ccccc32)CC1,inactive: 85%
12,Nc1c(-c2nc(-c3cccs3)no2)nnn1-c1ccccc1Cl,inactive: 94%
13,Cc1ccc(Cl)cc1N(C)C(=O)Cn1nc(Cc2cccnc2)c2ccccc2c1=O,inactive: 85%
14,CCOc1cccc(CNC(=O)c2ccc(N3CCCC3)c(NC(=O)NCc3ccc(F)cc3)c2)c1,inactive: 71%
15,CN(c1ccc(O)cc1)c1nc(-c2cccs2)cs1,inactive: 32%
16,Cc1ccccc1NC(=O)CSc1nnc(C)c(=O)[nH]1,inactive: 89%
17,Cc1ccc(-n2nc(C)c(C(=O)NCCCN3CCN(c4ccc(F)cc4)CC3)c2-n2cccc2)cc1,inactive: 101%
18,Cc1ccccc1CS(=O)(=O)CC1Nc2ccc(C(=O)NCc3ccc(Cl)cc3)cc2NC1=O (centres undefined),inactive: 71%
19,CCN(CC)CCOC(=O)c1ccc(NC(=O)Cn2ncc3c([nH]c4ccc(C)cc43)c2=O)cc1,inactive: 68%
20,COCCn1c(CNC(=O)c2ccc(C)cc2)nc2cccnc21,inactive: 75%
21,COc1ccccc1-c1nc2c3c(-c4ccccc4)c(-c4ccccc4)oc3ncn2n1,inactive: 89%
22,CCOc1ccc(-c2nonc2NC(=O)c2oc3c(C)c(C)ccc3c2C)cc1OCC,inactive: 82%
23,Cc1ccc(C)c(Cn2c3ccccc3c3cnn(CC(=O)NCCCc4ccccc4)c(=O)c32)c1,inactive: 137%

row,Compound,survival
1,COc1ccc2c(c1)c(=O)c(S(=O)(=O)c1ccc(Cl)cc1)cn2C,inactive: 86%
2,N#Cc1ccc(NC(=O)CNCCN2CCOCC2)cc1,inactive: 99%
3,Cc1ccccc1CNC(=O)C1CCN(c2nnc(-n3c(C)ccc3C)s2)CC1,inactive: 85%
4,COCCN=C1Sc2nc3c(C)cccc3cc2CN1Cc1ccco1,inactive: 108%
5,COc1ccc(O)c(-c2cn[nH]c2-c2cccs2)c1,inactive: 105%
6,CC(=O)Nc1c(C)nn(-c2ccccc2)c1N1CCC(C(=O)Nc2ccc(F)cc2Cl)CC1,inactive: 60%
7,Cc1cccc(NC(=O)N2CCC(CN3CCC(C)CC3)CC2)c1C,inactive: 105%
8,CCCc1[nH]nc2c1C1(CCN(C(C)=O)CC1)C(C#N)=C(N)O2,inactive: 103%
9,Cc1ccc2c(c1)C(c1ccccc1)N(C(=O)c1ccccc1F)CC(=O)N2 (centres undefined),inactive: 86%
10,CCOC(=O)c1c(C)[nH]c(C)c1S(=O)(=O)N1CCCC(C(=O)Nc2ccccc2OCC)C1 (centres undefined),inactive: 129%
11,CCc1cccc(CC)c1NC(=O)C(CC)n1nc(C)n2c(cc3cc(C)ccc32)c1=O (centres undefined),inactive: 73%
12,CCOC(=O)CSc1nnc(COc2cccc(C)c2)o1,inactive: 98%
13,CCOC(=O)c1cccc(NC(=O)c2cc3cc4ccc(C)cc4nc3o2)c1,inactive: 95%
14,CCCn1c(SCc2nc(-c3cc(OC)ccc3OC)no2)nnc1-c1ccc(Cl)cc1,inactive: 77%
15,CCc1cccc2cc(CN)c(=O)[nH]c12,inactive: 108%
16,Cc1ccc(-n2ncc(C(=O)Nc3ccc4c(c3)OCCO4)c2C2CCN(C(=O)OC(C)(C)C)CC2)cc1,inactive: 115%
17,Cc1ccccc1-c1noc(-c2cc3ccccc3oc2=O)n1,inactive: 90%
18,COc1ccc(Br)cc1CNC(=O)CSc1cc(=O)n(C)c2ccccc12,inactive: 81%
19,CCN1CCN(c2csc3ccc(C)cc3c2=O)CC1,inactive: 64%
20,CC1CCN(S(=O)(=O)c2ccc3c(c2)oc(=O)n3CC(=O)NC(C)c2ccccc2)CC1 (centres undefined),inactive: 144%
